# This is one part of the list. The energies were worked out here from pooled read counts, against the library average; single values are noisy.
# Target: T1, Pho4 (S. cerevisiae) (UniProt P07270)
# T1 sequence: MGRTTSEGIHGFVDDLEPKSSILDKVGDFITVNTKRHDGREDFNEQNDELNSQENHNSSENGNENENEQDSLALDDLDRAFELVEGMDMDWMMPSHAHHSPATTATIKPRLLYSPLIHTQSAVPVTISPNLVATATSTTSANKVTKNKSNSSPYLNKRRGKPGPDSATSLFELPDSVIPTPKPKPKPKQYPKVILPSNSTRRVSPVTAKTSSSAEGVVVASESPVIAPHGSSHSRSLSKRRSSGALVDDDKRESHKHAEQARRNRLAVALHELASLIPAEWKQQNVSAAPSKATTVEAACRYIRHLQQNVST
# Test: relative binding free energy (BET-seq); higher = weaker binding
# Conditions: reference: library average
row,Sequence,relative binding free energy [kcal/mol]
1,GGGGGCACGTGAGCGG,0.1
2,TGAAGCACGTGACGGT,0.04
3,AGCGTCACGTGATTGG,0.13
4,ACTTGCACGTGAGTGT,0.12
5,GTATTCACGTGTTTCA,0.24
6,TATTTCACGTGATTAT,0.37
7,TTTCCCACGTGTGGGT,-0.06
8,TAGTACACGTGCATGT,0.15
9,AGGGACACGTGGGGAT,-0.07
10,AAGGTCACGTGAAAGT,0.35
11,ATCGTCACGTGTGCTG,0.03
12,CGTGCCACGTGGGAGT,-0.04
13,CGGAGCACGTGTTTTG,-0.08
14,GGAATCACGTGGGAGT,0.04
15,ATATACACGTGGTTAT,-0.05
16,CTTGGCACGTGTGCGG,-0.02
17,TTTGGCACGTGAAATG,0.25
18,TATCTCACGTGTGATT,0.15
19,ACAGGCACGTGGGTTA,-0.3
20,GTTGTCACGTGCTTTT,0.14
21,TGTAGCACGTGTATGA,-0.03
22,AGGTTCACGTGGATGC,0.26
23,TTCGACACGTGCGTTG,0.03

row,Sequence,relative binding free energy [kcal/mol]
1,TATGACACGTGTTGAT,0
2,AATCACACGTGGGGGG,-0.03
3,GTTGACACGTGTAATT,0.25
4,GGGTACACGTGTTTAA,0.15
5,TGACTCACGTGGGCGG,0.15
6,GGGAGCACGTGAGAAT,0.27
7,GTCAGCACGTGGTATT,-0.08
8,TAAAGCACGTGTGATT,-0.03
9,TTTGGCACGTGCCGGG,-0.18
10,GTGTACACGTGTCGGT,0.07
11,TCATGCACGTGGGTCG,-0.12
12,TTCAGCACGTGGATAT,-0.09
13,AGGTTCACGTGTAGTC,0.29
14,GTGGACACGTGGGGAT,-0.03
15,AATTTCACGTGAAGTT,0.22
16,TTACTCACGTGGTATT,0.1
17,GGTTGCACGTGATAGC,0.1
18,ATGGTCACGTGTTAAG,0.14
19,AGGGTCACGTGCGTTA,0.21
20,CAGGTCACGTGTGTTA,0.19
21,TTAAACACGTGAGGGT,0.31
22,ATGGCCACGTGTGTGC,-0.13
23,TTCTACACGTGTGGTG,0.05

row,Sequence,relative binding free energy [kcal/mol]
1,GTAAGCACGTGATTGG,0.06
2,CTGGGCACGTGAGGGT,0.12
3,AACTGCACGTGAGTTA,0.24
4,TATTTCACGTGTAAGC,0.3
5,ATAGGCACGTGTCGAG,-0.09
6,TAGAACACGTGGTTGA,0.02
7,TATGGCACGTGGTATA,-0.29
8,TAATTCACGTGGAGCT,0.16
9,TACGGCACGTGCTGGG,-0.11
10,GTAAGCACGTGGATTT,-0.01
11,GGCGGCACGTGTTTAG,0.03
12,TTTTTCACGTGGATCT,0.4
13,TTTCGCACGTGACGGT,0.09
14,TCTGGCACGTGTCGAG,0
15,GGGGACACGTGTGATA,0.27
16,ATTTGCACGTGGCGTA,-0.15
17,GTAGTCACGTGTTGCC,0.17
18,TATTACACGTGAGGTC,0.14
19,TTGTCCACGTGGTTTG,-0.01
20,GTGGTCACGTGTTATG,0.22
21,CGTGGCACGTGAACGG,0.13
22,GCATTCACGTGCGGGT,0.23
23,TTGTGCACGTGACAAG,-0.03

row,Sequence,relative binding free energy [kcal/mol]
1,GCCGGCACGTGGGTTT,0
2,AAAGACACGTGGGTTT,0.01
3,TGGGCCACGTGTGCGA,-0.17
4,GGATCCACGTGGATTT,0.22
5,TTACTCACGTGCGGGT,0.16
6,GGAATCACGTGAGTAG,0.26
7,GCGGTCACGTGAGGGT,0.34
8,GAGTTCACGTGAGTAT,0.27
9,CTACTCACGTGTGGGT,0.24
10,GTTAACACGTGTTATG,-0.02
11,ATCATCACGTGGGTGT,0
12,AAGTGCACGTGGATAG,-0.06
13,ACATTCACGTGGGGGA,0.1
14,CATGTCACGTGGGAGC,0.18
15,CGTTGCACGTGTATTT,0.04
16,TATTGCACGTGTGGTA,0.01
17,GGTCTCACGTGGGTAT,0.04
18,TTCTGCACGTGTTGGC,-0.02
19,GGGTGCACGTGCAGAG,-0.03
20,GGGGTCACGTGCATGA,0.1
21,GGGGCCACGTGGCGGG,-0.16
22,GTGTTCACGTGGGGGC,0.2
23,AATGACACGTGATATG,0.09

row,Sequence,relative binding free energy [kcal/mol]
1,GAGTTCACGTGTAAGT,0.23
2,AGGGACACGTGTTATT,-0.12
3,TGGTTCACGTGATACG,0.35
4,TGTGGCACGTGGAGAC,-0.01
5,TTAGTCACGTGGTGTT,0.01
6,GTTACCACGTGTGTGT,-0.01
7,ATTTACACGTGAGAGT,0.35
8,CTGAGCACGTGTTGTT,-0.13
9,AGCAGCACGTGATTGT,0.18
10,TATAGCACGTGAGTGC,0.19
11,TGTCACACGTGTATGT,0.11
12,ATTTGCACGTGATTGC,0.16
13,CTTTTCACGTGGACGT,0.24
14,GTCATCACGTGGGTTG,0.06
15,TATAGCACGTGGTTCG,-0.17
16,AGGTTCACGTGGTGTC,0.27
17,GGTATCACGTGCAGTA,0.14
18,GGGGCCACGTGAGGAG,0.09
19,ATTTACACGTGATTTT,0.31
20,TTTGGCACGTGGCCGG,-0.19
21,GTAGACACGTGTGCGT,0
22,GTAAGCACGTGGAGTT,-0.08
23,TAATTCACGTGTGGTG,0.23

# Source: the BET-seq Pho4 binding data (Le et al. 2018)
